# Measurements reported in the supplement of paper PMC3334620.
# Whole data set: some 33,000 sequences, median “E-score (-0.5 to 0.5)” near -0.01, cut for the highest 2% near 0.26. The list shows a part of the results.
# Target: Ste12 (UniProt P13574)
# Assay: PBM E-score (8-mer binding enrichment) (E-score (-0.5 to 0.5)); higher = stronger / more preferred TF binding; most listed sequences are background and not binding sites
# Conditions: protein concentration: 200 nM; construct: GST-DNA-binding domain
# How it was run: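 The E-score, a modified Wilcoxon-Mann-Whitney statistic, was computed by the Universal PBM Analysis Suite for every ungapped eight-base word pooled with its reverse complement. Scans behind it were normalised with masliner after bound GST-tagged yeast transcription factors were detected with fluorescent anti-GST. The proteins, at about 100-200 nM, had been applied to universal all-10-mer Agilent arrays made double-stranded by primer extension.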
row,Sequence,PBM E-score
1,CCCATACA,-0.0112
2,ACCTAAAC,0.168
3,GTTCTACA,0.031
4,CGGCTGCA,-0.0379
5,AGAAACCA,0.194
6,GGGGAAAA,0.112
7,ATCCTAGC,-0.0573
8,AGATCGCC,-0.0132
9,CAGAACGA,0.106
10,CATAGGAC,-0.218
11,GGGCATGA,-0.143
12,CCCCGATC,-0.0934
13,ACGAGGCT,0.0649
14,CTAATGGA,0.0429
15,CTATATTC,-0.0299
16,TCAGCAGA,-0.131
17,AGTACACT,-0.143
18,GTTCCGAA,0.137
19,TAGGGGGA,-0.257
20,AACTGGTA,-0.00841
21,TTTCAAAA,0.343
22,CCGAGCAG,0.0906

row,Sequence,PBM E-score
1,AACACCAG,-0.108
2,ATTAACCA,0.0111
3,AACGAGGT,0.0102
4,GTGTTTTA,0.405
5,CCTCCGGA,-0.119
6,ATTCTCTC,0.053
7,ATCATCAA,0.156
8,TCGATGAA,0.152
9,GCTACAAC,-0.161
10,TAGCGGGA,-0.142
11,TAACTGCA,-0.141
12,CTACAATA,0.173
13,CGCTCGTA,-0.0524
14,AAGTGAGA,-0.0648
15,ACAGTAAG,0.0217
16,ATCTCCAA,0.0282
17,CCGGAAGC,-0.0132
18,TAAGTGGA,0.175
19,AGTCGCTG,-0.0244
20,ATTCAACC,0.0538
21,AGTTAAAT,0.163
22,GTCAAGCA,-0.37

row,Sequence,PBM E-score
1,CGGTCTCA,-0.0267
2,GTCCCTCA,-0.0769
3,AAGAACTT,-0.0547
4,ACCCAACC,-0.0602
5,TCGGCAGA,-0.0201
6,ATACCACA,0.0256
7,ATACGGTA,0.0398
8,GCGGTAGC,0.0401
9,GAGTAGGC,-0.154
10,CACCTGGC,0.0279
11,AGGTGCCA,-0.00545
12,CTTGATGC,-0.0799
13,AGATGGAG,-0.0199
14,ATAATGAT,0.167
15,GAAAAAAC,0.174
16,CTTTCTCA,0.175
17,GCGTCTCC,-0.0864
18,CTTCGTTC,-0.0231
19,CGAGACCC,0.0643
20,CGTGTTCC,0.0784
21,GAGACGAA,0.00731
22,AGGGGGAC,-0.317

row,Sequence,PBM E-score
1,CCAGGTGA,-0.00807
2,ACCGCTTC,-0.0945
3,AAATCAAG,0.114
4,ACATGACA,0.104
5,CCAAATAA,0.124
6,GTATCTTA,0.111
7,ATGGTATG,-0.211
8,ACCTAACC,-0.0859
9,CCAATCTC,0.0596
10,CAGATGAG,-0.0391
11,TACGGCTA,0.0636
12,ATCGGTTC,0.0264
13,AGCCTTCC,-0.215
14,AGCCATGG,-0.192
15,GCAGGTGA,-0.0702
16,CTCATGTC,-0.0818
17,AACGGCTT,-0.14
18,AGGGCCAT,-0.202
19,AGCCCTGC,-0.172
20,GTTCGTCA,-0.175
